From the supplement of paper PMC7826260
The other results are listed elsewhere or left out. Viral Rep nickase domains cut single-stranded DNA in vitro (1 h at 37 °C, 3 µM enzyme); the outer parts of the 90-letter strands are left off. A value is the log2 ratio of uncut reads to the pool without enzyme; uncut sequences lie near 0, cut ones below; no hit call is given. Shares of all reads are compared; where an enzyme cuts many sequences, the uncut ones exceed 0.

How the values were obtained:
Assay in all cases: uncleaved DNA left, log2 of reads against the no-enzyme library (log2 ratio); higher = less cleavage (more negative = more Rep cleavage of the k-mer); sequences stand for … in CTCGTCCG…ACCGGAGA
[1] = test system: T1, Rep nickase domain of Muscovy duck circovirus
T1 sequence (Rep 1-111, printed without the tag): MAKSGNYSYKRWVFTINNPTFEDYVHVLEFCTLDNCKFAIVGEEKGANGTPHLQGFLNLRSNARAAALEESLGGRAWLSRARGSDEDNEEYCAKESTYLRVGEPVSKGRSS
Experimental: (§1)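 A pool of 90-nt single-stranded DNAs with seven random bases just before the constant AC of the nick site (name = the seven bases) was cut by 3 µM recombinant His6-SUMO-tagged Rep nickase domain (300 nM DNA, 50 mM HEPES pH 8.0, 50 mM NaCl, 1 mM MnCl2, 1 h, 37 °C, three replicates). Uncut DNA was amplified and sequenced.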

[2] = test system: T2, Rep nickase domain of banana bunchy top virus
T2 sequence (Rep 1-94, printed without the tag): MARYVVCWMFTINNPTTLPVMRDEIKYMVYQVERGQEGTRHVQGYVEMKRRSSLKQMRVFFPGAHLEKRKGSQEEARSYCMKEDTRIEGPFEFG
Experimental: as §1

[3] = test system: T3, Rep nickase domain of cabbage leaf curl virus
T3 sequence (Rep 1-116, printed without the tag): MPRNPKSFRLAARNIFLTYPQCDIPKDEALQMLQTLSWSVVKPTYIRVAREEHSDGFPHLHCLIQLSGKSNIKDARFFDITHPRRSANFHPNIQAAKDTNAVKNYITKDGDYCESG
Experimental: as §1

[4] = test system: T4, Rep nickase domain of chickpea chlorotic dwarf virus
T4 sequence (Rep 1-124, printed without the tag): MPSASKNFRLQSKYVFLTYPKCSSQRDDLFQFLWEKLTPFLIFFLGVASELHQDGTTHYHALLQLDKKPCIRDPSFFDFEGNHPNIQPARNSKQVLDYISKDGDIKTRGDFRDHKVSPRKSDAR
Experimental: as §1

[5] = test system: T5, Rep nickase domain of faba bean necrotic yellows virus
T5 sequence (Rep 1-98, printed without the tag): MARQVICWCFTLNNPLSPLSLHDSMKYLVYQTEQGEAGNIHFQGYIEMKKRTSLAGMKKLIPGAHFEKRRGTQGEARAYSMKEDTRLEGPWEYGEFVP
Experimental: as §1

[6] = test system: T6, Rep nickase domain of maize striate mosaic virus
T6 sequence (Rep 1-117, printed without the tag): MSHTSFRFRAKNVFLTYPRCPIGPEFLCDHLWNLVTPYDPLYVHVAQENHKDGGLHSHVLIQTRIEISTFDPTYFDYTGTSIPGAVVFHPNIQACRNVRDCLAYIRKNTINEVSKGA
Experimental: as §1

[7] = test system: T7, Rep nickase domain of porcine circovirus 2
T7 sequence (Rep 2-116, printed without the tag): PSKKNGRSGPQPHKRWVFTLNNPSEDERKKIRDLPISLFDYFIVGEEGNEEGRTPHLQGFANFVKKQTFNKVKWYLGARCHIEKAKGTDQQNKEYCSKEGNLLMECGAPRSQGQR
Experimental: as §1

[8] = test system: T8, Rep nickase domain of tomato golden mosaic virus
T8 sequence (Rep 1-124, printed without the tag): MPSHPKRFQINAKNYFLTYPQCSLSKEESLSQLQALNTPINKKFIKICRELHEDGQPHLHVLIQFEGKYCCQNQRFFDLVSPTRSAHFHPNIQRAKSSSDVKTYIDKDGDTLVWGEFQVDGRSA
Experimental: as §1

[9] = test system: T9, Rep nickase domain of tomato yellow leaf curl virus
T9 sequence (Rep 1-136, printed without the tag): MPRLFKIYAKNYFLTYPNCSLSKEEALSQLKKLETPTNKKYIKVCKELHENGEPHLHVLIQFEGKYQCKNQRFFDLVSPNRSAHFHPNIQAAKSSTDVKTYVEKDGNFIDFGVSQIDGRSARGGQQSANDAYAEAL
Experimental: as §1

[10] = test system: T10, Rep nickase domain of wheat dwarf virus
T10 sequence (Rep 1-137, printed without the tag): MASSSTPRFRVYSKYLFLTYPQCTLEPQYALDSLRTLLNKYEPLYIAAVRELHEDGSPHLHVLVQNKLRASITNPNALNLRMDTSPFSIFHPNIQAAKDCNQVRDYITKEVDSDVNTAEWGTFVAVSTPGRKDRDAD
Experimental: as §1

Sequence | uncleaved DNA left (log2) [1] | uncleaved DNA left (log2) [2] | uncleaved DNA left (log2) [3] | uncleaved DNA left (log2) [4] | uncleaved DNA left (log2) [5] | uncleaved DNA left (log2) [6] | uncleaved DNA left (log2) [7] | uncleaved DNA left (log2) [8] | uncleaved DNA left (log2) [9] | uncleaved DNA left (log2) [10]
GTTCTAA | 0.118 | 0.135 | 0.355 | 0.996 | 0.148 | 1.92 | 0.212 | 0.162 | 0.199 | 0.195
GCGGAGT | -0.00375 | 0.0592 | 0.519 | 1.13 | 0.0337 | 1.38 | 0.192 | -0.00443 | 0.0833 | 0.188
TCGGTCG | 0.0662 | -0.0235 | -0.825 | -0.41 | -0.171 | -0.921 | 0.106 | -0.0104 | -0.127 | -0.193
CGCCTCT | -0.216 | -0.144 | -0.173 | -1.58 | -0.0787 | -0.237 | -0.322 | -0.176 | -0.179 | -0.0903
AGTTGCA | -0.000642 | 0.0522 | -0.645 | -0.663 | 0.0429 | -1.02 | -0.106 | 0.0194 | 0.0916 | -0.00924
TCTAGAG | 0.00182 | -0.116 | -0.402 | -0.61 | -0.00975 | -1.19 | 0.11 | 0.00352 | 0.00444 | -0.0525
CAGTCGT | 0.0923 | -0.4 | -0.645 | -1.02 | -0.159 | -0.94 | -3.18 | -0.082 | 0.0945 | -0.0975
GCTCATC | 0.116 | 0.108 | 0.195 | 0.568 | 0.077 | 0.00644 | 0.18 | 0.027 | 0.0886 | 0.0687
CTAGGTA | -0.00325 | 0.0839 | 0.325 | 0.892 | 0.13 | 1.16 | -0.0152 | 0.0385 | 0.0777 | 0.086
ACCGTAG | 0.129 | -0.0119 | -0.605 | 0.146 | 0.134 | -0.593 | 0.226 | 0.0164 | 0.00765 | -0.0183
TCTAATT | -0.0936 | -0.00397 | -0.102 | -2.56 | -0.00581 | -0.459 | -1.72 | -0.119 | 0.0427 | -0.161
TCTATTC | 0.153 | 0.018 | 0.105 | -0.0505 | -0.00635 | -0.777 | 0.0471 | -0.0624 | 0.0621 | -0.0597
TACTCCT | -3.36 | -2.57 | -2.25 | -3.17 | -0.0959 | -0.474 | -3.58 | -0.257 | -0.0882 | -0.192
GCGTAGG | 0.123 | 0.00838 | 0.139 | 0.701 | -0.000939 | 0.542 | 0.0823 | 0.0273 | 0.0445 | -0.00302
CGATGTT | -2.83 | -0.301 | -0.838 | -1.98 | 0.0468 | -0.128 | -3.2 | -0.444 | -0.0854 | -0.77
ATGCCCC | -0.0523 | -0.0856 | 0.113 | 0.18 | -0.0433 | -0.178 | -0.341 | -0.216 | -0.0846 | 0.053
CCGCTGG | 0.00454 | -0.114 | -0.124 | 0.133 | 0.0896 | -0.173 | 0.0722 | -0.0499 | -0.0715 | -0.0252
AGGCTGC | 0.000202 | 0.0187 | 0.324 | 1.19 | -0.0188 | 1.4 | 0.189 | 0.0877 | -0.0373 | 0.0299
GCCCAGA | 0.175 | 0.169 | 0.299 | 0.623 | 0.158 | 0.203 | 0.253 | 0.257 | 0.097 | 0.128
CACCATT | -0.0675 | -0.101 | -0.954 | -2.67 | -0.0497 | -1.16 | -2.73 | -0.354 | 0.00262 | -0.0757
ACCAGGG | 0.0689 | 0.133 | -0.271 | 0.174 | 0.184 | -0.519 | 0.22 | 0.0308 | 0.156 | -0.0252
ATTGCAA | 0.075 | 0.102 | -0.533 | -0.6 | 0.087 | -0.931 | 0.169 | 0.0696 | 0.168 | -0.057
ACCCATC | 0.0194 | -0.0416 | -0.14 | -0.0306 | 0.177 | -0.579 | 0.00597 | 0.0431 | -0.157 | -0.0566
CAGAGCA | 0.00751 | 0.0489 | -0.263 | -0.9 | -0.054 | -0.961 | -2.02 | 0.0185 | 0.106 | -0.0785
TCTAACC | -0.189 | -0.0218 | -0.261 | -1.31 | 0.00576 | -0.522 | -1.02 | 0.0213 | -0.0142 | -0.132
TCATCAA | -0.0247 | 0.103 | 0.228 | 0.351 | -0.12 | -0.106 | 0.0217 | -0.0122 | 0.0905 | 0.121
TGCCTAA | -0.0532 | 0.0515 | 0.107 | -0.15 | -0.0164 | -0.293 | -0.0957 | -0.0384 | 0.082 | 0.0373
ATGTCGT | 0.000585 | -0.076 | -0.863 | -0.756 | -0.00431 | -1.08 | -0.708 | -0.0989 | 0.0173 | -0.168
TGAGATG | 0.158 | -0.0626 | 0.167 | 0.83 | 0.108 | 1.13 | 0.109 | 0.114 | -0.0495 | -0.0759
